Results from the antibiotic and cytotoxicity screens of Wong et al. (2023).
Some of the results follow.

Assays:
HSkMC = human skeletal muscle cells; assay: cytotoxicity call (relative viability < 0.9); conditions: 10 µM
HepG2 = assay: cytotoxicity call (relative viability < 0.9); conditions: 10 µM
S. aureus RN4220 = assay: growth inhibition call (relative growth <= 0.2); conditions: 50 µM

Row | Structure (SMILES) | cytotoxicity call (HSkMC) | cytotoxicity call (HepG2) | growth inhibition call (S. aureus RN4220)
1 | C=c1ccc(C)c2c1=C(O)C(=O)N2 | inactive | inactive | inactive
2 | CCS(=O)(=O)N1CC[C@]2(CC1)CN(Cc1ccc3c(c1)OCO3)[C@H](CO)c1c2c2ccc(cc2n1C)OC | inactive | inactive | inactive
3 | C[C@@H]1CN([C@H](C)CO)C(=O)c2cc(NS(=O)(=O)c3ccc(F)cc3)ccc2O[C@@H]1CN(C)Cc1ccncc1 | inactive | inactive | inactive
4 | C[C@H]1CN([C@@H](C)CO)C(=O)c2cc(NC(=O)CCC(F)(F)F)ccc2O[C@H]1CN(C)C(=O)Nc1ccc(C(F)(F)F)cc1 | inactive | active | inactive
5 | CC(C)CC#Cc1ccc2c(c1)O[C@@H](CN(C)S(=O)(=O)c1cccc(F)c1)[C@@H](C)CN([C@H](C)CO)S2(=O)=O | inactive | inactive | inactive
